Data reported in the CheMixHub viscosity set.
“And” between values parts separate entries of the source, which are not always exact repeats. Identical values can stand only once. ± gives the uncertainty stated by the source. The source gives many values for each of these; only a part stands here.

Assay: xn = mol fraction of the nth substance listed

CCCO + O
Details	viscosity
293.15 K, 101 kPa, x1 = 0.9	2.3 ± 0.016 mPa·s
293.15 K, 101.3 kPa, x1 = 0.0908	2.48 ± 0.33 mPa·s
293.15 K, 101.3 kPa, x1 = 0.2306	3.17 ± 0.39 mPa·s
293.15 K, 101.3 kPa, x1 = 0.4735	2.94 ± 0.3 mPa·s
293.15 K, 101.3 kPa, x1 = 0.7296	2.52 ± 0.21 mPa·s
293.15 K, 101.33 kPa, x1 = 0.0322	1.597 ± 0.016 mPa·s
293.15 K, 101.33 kPa, x1 = 0.114	2.748 ± 0.027 mPa·s
293.15 K, 101.33 kPa, x1 = 0.231	3.278 ± 0.033 mPa·s
293.15 K, 101.33 kPa, x1 = 0.25	3.31 ± 0.033 mPa·s
293.15 K, 101.33 kPa, x1 = 0.268	3.31 ± 0.033 mPa·s
293.15 K, 101.33 kPa, x1 = 0.412	3.193 ± 0.032 mPa·s
297.96 K, 101.33 kPa, x1 = 0.0555	1.69 ± 0.002 mPa·s
297.96 K, 101.33 kPa, x1 = 0.1383	2.275 ± 0.002 mPa·s
297.96 K, 101.33 kPa, x1 = 0.1644	2.479 ± 0.002 mPa·s
297.96 K, 101.33 kPa, x1 = 0.1938	2.503 ± 0.002 mPa·s
297.96 K, 101.33 kPa, x1 = 0.3109	2.681 ± 0.002 mPa·s
297.96 K, 101.33 kPa, x1 = 0.5696	2.395 ± 0.002 mPa·s
297.96 K, 101.33 kPa, x1 = 0.7354	2.192 ± 0.002 mPa·s
298 K, 101 kPa, x1 = 0.03	1.335 ± 0.014 mPa·s
298 K, 101 kPa, x1 = 0.1	2.227 ± 0.025 mPa·s
298 K, 101 kPa, x1 = 0.2	2.47 ± 0.028 mPa·s
298 K, 101 kPa, x1 = 0.4	2.586 ± 0.03 mPa·s
298.15 K, 100 kPa, x1 = 0.025	1.255 ± 0.08 mPa·s
298.15 K, 100 kPa, x1 = 0.0917	2.038 ± 0.13 mPa·s
298.15 K, 100 kPa, x1 = 0.191	2.56 ± 0.16 mPa·s
298.15 K, 100 kPa, x1 = 0.2014	2.591 ± 0.054 mPa·s
298.15 K, 100 kPa, x1 = 0.5	2.509 ± 0.1 mPa·s
298.15 K, 100 kPa, x1 = 0.545	2.448 ± 0.11 mPa·s
298.15 K, 100 kPa, x1 = 0.629	2.273 ± 0.097 mPa·s
298.15 K, 100 kPa, x1 = 0.73	2.152 ± 0.091 mPa·s
298.15 K, 100 kPa, x1 = 0.75	2.157 ± 0.088 mPa·s
298.15 K, 101 kPa, x1 = 0.0051	0.957 ± 0.011 mPa·s
298.15 K, 101 kPa, x1 = 0.0116	1.03 ± 0.012 mPa·s
298.15 K, 101 kPa, x1 = 0.0149	1.079 ± 0.013 mPa·s
298.15 K, 101 kPa, x1 = 0.0214	1.173 ± 0.014 mPa·s
298.15 K, 101 kPa, x1 = 0.02492	1.239 ± 0.099 mPa·s
298.15 K, 101 kPa, x1 = 0.0386	1.435 ± 0.017 mPa·s
298.15 K, 101 kPa, x1 = 0.0523	1.734 ± 0.024 mPa·s
298.15 K, 101 kPa, x1 = 0.0997	2.095 ± 0.027 mPa·s
298.15 K, 101 kPa, x1 = 0.1342	2.303 ± 0.029 mPa·s
298.15 K, 101 kPa, x1 = 0.1986	2.562 ± 0.031 mPa·s
298.15 K, 101 kPa, x1 = 0.3006	2.705 ± 0.032 mPa·s
298.15 K, 101 kPa, x1 = 0.3811	2.627 ± 0.21 mPa·s
298.15 K, 101 kPa, x1 = 0.4003	2.619 ± 0.031 mPa·s
298.15 K, 101 kPa, x1 = 0.4782	2.498 ± 0.03 mPa·s
298.15 K, 101 kPa, x1 = 0.5394	2.407 ± 0.03 mPa·s
298.15 K, 101 kPa, x1 = 0.6217	2.306 ± 0.029 mPa·s
298.15 K, 101 kPa, x1 = 0.6856	2.241 ± 0.028 mPa·s
298.15 K, 101 kPa, x1 = 0.8994	2.036 ± 0.16 mPa·s
298.15 K, 101 kPa, x1 = 0.9621	1.986 ± 0.16 mPa·s
298.15 K, 101.33 kPa, x1 = 0.0273	1.289 ± 0.033 mPa·s
298.15 K, 101.33 kPa, x1 = 0.0298	1.312 ± 0.033 mPa·s
298.15 K, 101.33 kPa, x1 = 0.03223	1.347 ± 0.014 mPa·s
298.15 K, 101.33 kPa, x1 = 0.06972	1.836 ± 0.019 mPa·s
298.15 K, 101.33 kPa, x1 = 0.08053	1.982 ± 0.05 mPa·s
298.15 K, 101.33 kPa, x1 = 0.09045	2.047 ± 0.052 mPa·s
298.15 K, 101.33 kPa, x1 = 0.09346	2.11 ± 0.054 mPa·s
298.15 K, 101.33 kPa, x1 = 0.1058	2.188 ± 0.056 mPa·s
298.15 K, 101.33 kPa, x1 = 0.1139	2.226 ± 0.023 mPa·s
298.15 K, 101.33 kPa, x1 = 0.1398	2.456 ± 0.062 mPa·s
298.15 K, 101.33 kPa, x1 = 0.1666	2.497 ± 0.026 mPa·s
298.15 K, 101.33 kPa, x1 = 0.1869	2.616 ± 0.067 mPa·s
298.15 K, 101.33 kPa, x1 = 0.2306	2.65 ± 0.027 mPa·s
298.15 K, 101.33 kPa, x1 = 0.2571	2.707 ± 0.069 mPa·s
298.15 K, 101.33 kPa, x1 = 0.357	2.703 ± 0.069 mPa·s
298.15 K, 101.33 kPa, x1 = 0.4047	2.62 ± 0.067 mPa·s
298.15 K, 101.33 kPa, x1 = 0.4116	2.592 ± 0.027 mPa·s
298.15 K, 101.33 kPa, x1 = 0.5365	2.45 ± 0.062 mPa·s
298.15 K, 101.33 kPa, x1 = 0.5453	2.394 ± 0.025 mPa·s
298.15 K, 101.33 kPa, x1 = 0.6095	2.364 ± 0.06 mPa·s
298.15 K, 101.33 kPa, x1 = 0.6596	2.311 ± 0.059 mPa·s
298.15 K, 101.33 kPa, x1 = 0.7296	2.162 ± 0.022 mPa·s
298.15 K, 101.33 kPa, x1 = 0.8507	2.043 ± 0.021 mPa·s
302.99 K, 101.33 kPa, x1 = 0.0555	1.435 ± 0.002 mPa·s
302.99 K, 101.33 kPa, x1 = 0.1134	1.889 ± 0.002 mPa·s
302.99 K, 101.33 kPa, x1 = 0.1383	2.009 ± 0.002 mPa·s
302.99 K, 101.33 kPa, x1 = 0.1644	2.116 ± 0.002 mPa·s
302.99 K, 101.33 kPa, x1 = 0.2288	2.25 ± 0.002 mPa·s
302.99 K, 101.33 kPa, x1 = 0.3109	2.286 ± 0.002 mPa·s
302.99 K, 101.33 kPa, x1 = 0.4189	2.222 ± 0.002 mPa·s
302.99 K, 101.33 kPa, x1 = 0.5696	2.072 ± 0.002 mPa·s
302.99 K, 101.33 kPa, x1 = 0.7354	1.924 ± 0.002 mPa·s
303.15 K, 101 kPa, x1 = 0.0738	1.534 ± 0.014 mPa·s
303.15 K, 101 kPa, x1 = 0.1	1.791 ± 0.016 mPa·s
303.15 K, 101 kPa, x1 = 0.2	2.2 ± 0.019 mPa·s
303.15 K, 101 kPa, x1 = 0.3	2.283 ± 0.019 mPa·s
303.15 K, 101 kPa, x1 = 0.3067	2.277 ± 0.022 mPa·s
303.15 K, 101 kPa, x1 = 0.4143	2.213 ± 0.021 mPa·s
303.15 K, 101 kPa, x1 = 0.5	2.134 ± 0.017 mPa·s
303.15 K, 101 kPa, x1 = 0.5764	1.969 ± 0.021 mPa·s
303.15 K, 101 kPa, x1 = 0.6	2.038 ± 0.016 mPa·s
303.15 K, 101 kPa, x1 = 0.6817	1.951 ± 0.018 mPa·s
303.15 K, 101 kPa, x1 = 0.7	1.939 ± 0.015 mPa·s
303.15 K, 101 kPa, x1 = 0.8	1.862 ± 0.015 mPa·s
303.15 K, 101 kPa, x1 = 0.9	1.783 ± 0.013 mPa·s and 1.796 ± 0.014 mPa·s
303.15 K, 101.3 kPa, x1 = 0.0908	1.73 ± 0.23 mPa·s
303.15 K, 101.3 kPa, x1 = 0.2306	2.25 ± 0.27 mPa·s
303.15 K, 101.3 kPa, x1 = 0.4735	2.15 ± 0.22 mPa·s
303.15 K, 101.3 kPa, x1 = 0.7296	1.92 ± 0.16 mPa·s
303.15 K, 101.33 kPa, x1 = 0.0322	1.217 ± 0.012 mPa·s
303.15 K, 101.33 kPa, x1 = 0.06972	1.546 ± 0.017 mPa·s
303.15 K, 101.33 kPa, x1 = 0.1139	1.868 ± 0.021 mPa·s
303.15 K, 101.33 kPa, x1 = 0.114	1.939 ± 0.019 mPa·s
303.15 K, 101.33 kPa, x1 = 0.1666	2.101 ± 0.023 mPa·s
303.15 K, 101.33 kPa, x1 = 0.2306	2.237 ± 0.025 mPa·s
303.15 K, 101.33 kPa, x1 = 0.231	2.334 ± 0.023 mPa·s
303.15 K, 101.33 kPa, x1 = 0.4116	2.216 ± 0.024 mPa·s
303.15 K, 101.33 kPa, x1 = 0.412	2.329 ± 0.023 mPa·s
303.15 K, 101.33 kPa, x1 = 0.5453	2.071 ± 0.022 mPa·s
303.15 K, 101.33 kPa, x1 = 0.7296	1.891 ± 0.02 mPa·s
303.15 K, 101.33 kPa, x1 = 0.8507	1.805 ± 0.019 mPa·s
307.92 K, 101.33 kPa, x1 = 0.0555	1.242 ± 0.002 mPa·s
307.92 K, 101.33 kPa, x1 = 0.1134	1.621 ± 0.002 mPa·s
307.92 K, 101.33 kPa, x1 = 0.1383	1.728 ± 0.002 mPa·s
307.92 K, 101.33 kPa, x1 = 0.1644	1.815 ± 0.002 mPa·s
307.92 K, 101.33 kPa, x1 = 0.3109	1.972 ± 0.002 mPa·s
307.92 K, 101.33 kPa, x1 = 0.5696	1.807 ± 0.002 mPa·s
307.92 K, 101.33 kPa, x1 = 0.7354	1.691 ± 0.002 mPa·s
308.15 K, 100 kPa, x1 = 0.025	0.97 ± 0.062 mPa·s
308.15 K, 100 kPa, x1 = 0.0917	1.461 ± 0.093 mPa·s
308.15 K, 100 kPa, x1 = 0.191	1.85 ± 0.12 mPa·s
308.15 K, 100 kPa, x1 = 0.545	1.78 ± 0.074 mPa·s
